In series [1] the target is T1, Sigma non-opioid intracellular receptor 1 (Homo sapiens, UniProt Q99720). The experiment in a line: Displacement of [3H] Pentazocine from sigma 1 receptor in HEK293 cell membrane. The series is classed as cell membranes. (In general: Displacement assays read how much labelled ligand stays bound in the presence of the test substance.)
The next series addresses T2, D(4) dopamine receptor (Homo sapiens, UniProt P21917).
T2 sequence (P21917 whole entry): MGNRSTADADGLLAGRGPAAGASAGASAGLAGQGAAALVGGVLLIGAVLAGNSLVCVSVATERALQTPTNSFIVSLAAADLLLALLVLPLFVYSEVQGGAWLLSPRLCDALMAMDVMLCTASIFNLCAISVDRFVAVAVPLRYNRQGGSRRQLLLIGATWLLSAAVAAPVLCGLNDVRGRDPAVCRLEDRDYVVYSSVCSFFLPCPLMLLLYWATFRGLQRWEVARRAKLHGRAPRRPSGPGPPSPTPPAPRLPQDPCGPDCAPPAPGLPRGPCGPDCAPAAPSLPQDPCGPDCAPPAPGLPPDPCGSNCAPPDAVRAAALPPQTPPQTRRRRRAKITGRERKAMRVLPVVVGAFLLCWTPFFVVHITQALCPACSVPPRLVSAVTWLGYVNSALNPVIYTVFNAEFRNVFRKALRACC
The experiment in a line: Displacement of [3H]N-methylspiperone from D4 receptor in HEK293 cell membrane. The series is classed as cell membranes.

The nature of series [2]: Plasma protein binding in mouse assessed as unbound fraction. The series is classed as ADME. In outline:
(§1)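 Plasma protein binding by equilibrium dialysis in human or mouse plasma, reported as fraction unbound (fu).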

The target in series [3] is Sigma intracellular receptor 2 (Homo sapiens, UniProt Q5BJF2). In words: Displacement of [3H]DTG from sigma-2 receptor in HEK293 cell membrane assessed as inhibition constant. It is filed as cell membranes. In outline:
(§2)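 Competitive radioligand binding in membranes harvested from HEK293 cells, with one radioligand per target: [3H]N-methylspiperone for D2, D3 and D4; [3H]SCH23390 for D1 and D5; [3H]pentazocine for σ1; [3H]DTG for σ2. Ki derived from inhibition of binding, each run in triplicate.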

The next series concerns the target D(1A) dopamine receptor (Homo sapiens, UniProt P21728). The experiment in a line: Displacement of [3H]SCH23390 from D1 receptor in HEK293 cell membrane assessed as inhibition constant. It is filed as cell membranes. In outline: as §2
Chain of UniProt P21728 (P21728 whole entry): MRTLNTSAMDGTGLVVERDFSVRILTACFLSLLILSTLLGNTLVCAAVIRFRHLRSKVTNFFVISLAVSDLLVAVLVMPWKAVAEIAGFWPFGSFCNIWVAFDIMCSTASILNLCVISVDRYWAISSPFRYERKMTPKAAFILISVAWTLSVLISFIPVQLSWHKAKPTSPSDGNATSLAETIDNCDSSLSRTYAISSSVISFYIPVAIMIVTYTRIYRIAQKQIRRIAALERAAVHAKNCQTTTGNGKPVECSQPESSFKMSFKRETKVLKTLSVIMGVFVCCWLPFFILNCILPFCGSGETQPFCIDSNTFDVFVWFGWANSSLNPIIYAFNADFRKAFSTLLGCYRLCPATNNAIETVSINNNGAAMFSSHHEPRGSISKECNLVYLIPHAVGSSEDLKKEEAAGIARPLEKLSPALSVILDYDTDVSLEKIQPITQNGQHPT
Series [4] is described as follows: Plasma protein binding in human assessed as unbound fraction. The series is classed as ADME, cell-free. In outline:
as §1

For series [5], the target named is T3, D(4) dopamine receptor (Homo sapiens) (UniProt P21917).
T3 sequence (whole entry): T2 sequence (P21917 whole entry)
In words: Displacement of [3H]N-methylspiperone from D4 receptor in HEK293 cell membrane assessed as inhibition constant at 10 uM relative to control. The series is classed as cell membranes. More on the design: scale not given: the % may be the effect or the level left.

Another series concerns the target D(3) dopamine receptor (Homo sapiens, UniProt P35462). In words: Displacement of [3H]N-methylspiperone from D3 receptor in HEK293 cell membrane assessed as inhibition constant. It is filed as cell membranes. The method in brief: as §2
Chain of UniProt P35462 (P35462 whole entry): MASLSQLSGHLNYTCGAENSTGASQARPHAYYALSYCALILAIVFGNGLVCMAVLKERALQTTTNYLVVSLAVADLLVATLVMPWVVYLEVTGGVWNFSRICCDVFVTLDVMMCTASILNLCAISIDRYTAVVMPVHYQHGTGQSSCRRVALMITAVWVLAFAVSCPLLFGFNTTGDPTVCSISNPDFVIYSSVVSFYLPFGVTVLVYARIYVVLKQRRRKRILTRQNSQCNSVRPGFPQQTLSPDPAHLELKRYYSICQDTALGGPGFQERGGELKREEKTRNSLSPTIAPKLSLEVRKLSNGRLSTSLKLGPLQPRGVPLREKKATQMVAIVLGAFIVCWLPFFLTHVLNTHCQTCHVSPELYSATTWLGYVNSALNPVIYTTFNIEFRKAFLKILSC
The target of a further series is D(1B) dopamine receptor (Homo sapiens, UniProt P21918). In words: Displacement of [3H]SCH23390 from D5 receptor in HEK293 cell membrane assessed as inhibition constant. It is filed as cell membranes. The method in brief: as §2
Chain of UniProt P21918 (P21918 whole entry): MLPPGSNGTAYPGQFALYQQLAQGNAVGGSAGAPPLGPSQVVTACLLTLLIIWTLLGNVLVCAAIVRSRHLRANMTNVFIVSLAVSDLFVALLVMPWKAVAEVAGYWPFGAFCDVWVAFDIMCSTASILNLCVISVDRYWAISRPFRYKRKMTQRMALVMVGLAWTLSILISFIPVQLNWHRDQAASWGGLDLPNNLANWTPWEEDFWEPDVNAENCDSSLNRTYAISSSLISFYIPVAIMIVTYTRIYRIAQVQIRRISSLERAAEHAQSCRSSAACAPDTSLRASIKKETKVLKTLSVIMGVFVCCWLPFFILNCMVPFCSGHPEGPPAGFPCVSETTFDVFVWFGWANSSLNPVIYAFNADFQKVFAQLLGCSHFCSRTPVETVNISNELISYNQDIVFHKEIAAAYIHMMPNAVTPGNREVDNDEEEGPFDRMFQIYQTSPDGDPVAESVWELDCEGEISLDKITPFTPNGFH
Series [6] addresses T1, Sigma non-opioid intracellular receptor 1. In words: Displacement of [3H] Pentazocine from sigma 1 receptor in HEK293 cell membrane assessed as inhibition constant relative to control. It is filed as cell membranes. More on the design: scale not given: the % may be the effect or the level left. In outline: as §2

Chain of UniProt Q5BJF2 (Q5BJF2 whole entry): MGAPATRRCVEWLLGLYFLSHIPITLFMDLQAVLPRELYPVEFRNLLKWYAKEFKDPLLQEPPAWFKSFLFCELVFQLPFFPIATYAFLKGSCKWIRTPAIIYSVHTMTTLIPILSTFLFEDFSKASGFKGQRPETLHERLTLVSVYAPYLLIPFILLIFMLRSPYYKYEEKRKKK
T1 sequence (Q99720 whole entry): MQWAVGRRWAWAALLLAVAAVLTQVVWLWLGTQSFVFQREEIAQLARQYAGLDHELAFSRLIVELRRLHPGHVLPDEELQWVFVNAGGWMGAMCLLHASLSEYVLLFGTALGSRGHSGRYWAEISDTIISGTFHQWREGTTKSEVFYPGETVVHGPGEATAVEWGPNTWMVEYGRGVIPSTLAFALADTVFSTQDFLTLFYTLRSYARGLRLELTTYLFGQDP

In series [1], `Cn1ncc2cc(CN3CCC(OCc4ccc(Cl)c(F)c4)CC3)ccc21` displayed a Ki of 1.3 nM.
On to `COc1ccc(CN2CCC[C@@H](OCc3ccc(F)c(C)c3)C2)cc1F`, for which the Ki at D(4) dopamine receptor (read-out: Ki) is 1050 nM; in series [1] it was 8.8 nM; in series [3], 206 nM; on D(1A) dopamine receptor, more than 10000 nM. Moreover, the Fu in [2] is 1%; in [4], “Not Determined(Unstable)”.
Regarding `Fc1cc(COC2CCN(Cc3ncc4ccccn34)CC2)ccc1Cl`, the Ki in series [1] worked out at 31 nM.
For the compound `Cc1cc(NC(=O)CN2CCC3(CCCN(Cc4ccc(F)c(F)c4)C3)C2)ccc1F` (stereo not drawn), in series [5], the Activity was 11%. Moreover, the Ki in [1] is 11 nM; in series [3], 45 nM; at D(1A) dopamine receptor, more than 10000 nM; on D(3) dopamine receptor, 376 nM; at D(1B) dopamine receptor, more than 10000 nM. The Fu result in series [2] was “Not Determined(Unstable)”; in series [4] it was 0.02%.
`Cc1nc(CN2CCC(OCc3ccc(F)c(F)c3)CC2)c2ccccn12` came in with a Ki in [1] of 40 nM.
On to `Cc1cc(NC(=O)CN2CCC(OCc3ccc(F)c(F)c3)CC2)ccc1F`, for which the figures for the Ki (in [1]; in series [3]; on D(1A) dopamine receptor) were 81 nM, 123 nM and more than 10000 nM, respectively. The Fu entry in series [2] is recorded as “Not Determined(Unstable)”.
For the compound `COc1ccc(CN2CCC[C@H](OCc3ccccc3C)C2)cc1F`, in series [1], the Ki worked out at 8.7 nM.
For the compound `Fc1ccc(OC[C@@H]2CN(Cc3ccc4[nH]cnc4c3)CCO2)cc1F`, the Ki in series [1] came to 18 nM.
For `FC(F)(F)Oc1cccc(CO[C@H]2CCCN(Cc3ncc4ccccn34)C2)c1`, in [5], the Activity was 40%. Moreover, the Ki in [1] turned out to be 55 nM.
As for `Cc1cccc(CO[C@H]2CCCN(Cc3ncc4ccccn34)C2)n1`, the Activity in series [5] was determined as 19%; in [6], 15%.
With `Cc1nc(CN2CCC(OCc3cccc(C(F)(F)F)c3)CC2)c2ccccn12`, the Ki is 302 nM on D(4) dopamine receptor (read-out: pKi (converted)) and 35 nM in series [1].
As for `Cc1ccc(CO[C@H]2CCCN(Cc3cccc(F)c3)C2)cc1`, the Activity in [5] amounted to 33%. In addition, the Ki in series [1] is 19 nM; in series [3], 574 nM; at D(1A) dopamine receptor, more than 10000 nM. The Fu in series [2] turned out to be 1.4%; in series [4] it was 0.3%.
The compound `Cc1c(Cl)cccc1NC(=O)CN1CCC(OCc2cccc(C(F)(F)F)c2)CC1` had a Ki in [1] of 358 nM.
Still for that read-out and setting: for `Cn1ncc2cc(CN3CCC(OCc4cccc(C(F)(F)F)c4)CC3)ccc21` the value was 1.7 nM.
As for `Cc1nc(CN2CCC(OCc3ccc(Cl)c(F)c3)CC2)c2ccccn12`, the Ki in series [1] is 12 nM. The Fu is listed as 9% in [2] and 8.3% in series [4].
Regarding `Cc1ccc(CO[C@H]2CCCN(Cc3ccc(C#N)cc3)C2)cc1`, the Ki in series [1] is 14 nM; in series [3] it was 248 nM; at D(1A) dopamine receptor, more than 10000 nM. The Fu in series [2] is reported as 2.4%; in series [4], 1.2%.
Regarding `Cc1cccc(COC2CCN(Cc3cn4ccccc4n3)CC2)n1`, the Ki at D(4) dopamine receptor (read-out: Ki) came out at 320 nM; in [1], 180 nM.
Regarding `Cc1c(Cl)cccc1NC(=O)CN1CCC(OCc2ccc(F)c(F)c2)CC1`, the Ki in series [1] was 131 nM; at D(1A) dopamine receptor it was more than 10000 nM; on D(1B) dopamine receptor it was more than 10000 nM.
Take `Cc1ccccc1CN1CCC[C@H](OCc2cccc(F)c2)C1`: the Activity in series [5] stood at 29%. Moreover, the Ki in series [1] is 45 nM.
Take `Cc1ccc(CN2CCC[C@H](OCc3ccc(F)c(C)c3)C2)cc1`: the Ki in series [1] is 6.5 nM; in series [3], 76 nM; at D(1A) dopamine receptor it was more than 10000 nM.
For the compound `Fc1cc(COC2CCN(Cc3cc4ccc(Cl)cc4[nH]3)CC2)ccc1Cl`, in [1], the Ki stood at 29 nM.
For `Cc1cc(NC(=O)CN2CCC3(CCCN3Cc3ccc(F)c(F)c3)CC2)ccc1F`, the Activity in [5] was found to be 25%. This compound displayed a Ki in [1] of 27 nM.
For `Fc1ccc(OC[C@@H]2CN(Cc3cn4ccccc4n3)CCO2)cc1F`, the Ki on D(4) dopamine receptor (read-out: Ki) was found to be 91 nM; in series [1], 1090 nM. Further, the results for the Fu in series [2] and in [4] were 14.3% and 2.4%, respectively.
Turning to `Cc1c(Cl)cccc1NC(=O)CN1CCC2(CCCN2Cc2ccc(F)c(F)c2)CC1`, the Activity in series [5] was determined as 4%. For the same compound, the Ki in [1] was 83 nM; in series [3], 121 nM; at D(1A) dopamine receptor, more than 10000 nM.
Turning to `COc1ccc(CN2CCC[C@H](OCc3ccc(F)c(C)c3)C2)cc1F`, the Ki in series [1] was 2.4 nM; in series [3], 123 nM; at D(1A) dopamine receptor, more than 10000 nM. For the same compound, the Fu in series [2] is reported as 1.2%; in [4], 0.6%.
Consider `Cc1csc(OC[C@@H]2CN(Cc3ccc4c(cnn4C)c3)CCO2)n1`, for which the Ki on D(4) dopamine receptor (read-out: Ki) was determined as 557 nM; in [1], 1330 nM.
In series [1], `Fc1ccc(COC2CCN(Cc3cn4ccccc4n3)CC2)cc1F` gave a Ki of 5.2 nM.
For the compound `Cn1ncc2cc(CN3CCC(OCc4ccc(F)c(F)c4)CC3)ccc21`, the Ki is 1.8 nM in [1], 10 nM in series [3] and more than 10000 nM on D(1A) dopamine receptor.
For the compound `FC(F)(F)c1cccc(COC2CCN(Cc3ncc4ccccn34)CC2)c1`, the Ki in series [1] was 175 nM.

The record behind these values is ChEMBL document CHEMBL5247621, “From dopamine 4 to sigma 1: Synthesis, SAR and biological characterization of a piperidine scaffold of σ1 modulators” (Eur J Med Chem, 2022).
